Reference: the RNAGym collection of RNA variant scans (doi:10.7554/elife.90254)
Read counts are not given, so values of variants with three or more changes are uncertain.

B1: LINE1-mini (parent)
chain: GGCAGAGCUCAACACAGCGUGGCAAAGUGGCUGUGGCUAGACUGCC

Variants of: B1
Assay: self-cleavage, relative activity (ratio to wild type); higher = more cleavage; in vitro, sequencing; the parent is a self-cleaving ribozyme

| Variant | self-cleavage |
| --- | --- |
| GGCACAGCUUUACACAGCCUGGCCAAGUGGCUGUGGCUAGACUGCC | 0.01 |
| GGCACAGCUCAAAACAGCGUGGCCAAGCGGCUGUGGCUAGACUGCC | 0.04 |
| GGCACAGCUUAACAAAGCGUGGCAAAGUGGCUGUGGCUAGACUGCC | 0.02 |
| GGCACAGCUAAAUACAGCGUGGCAAAGUGGCUGUGGCUAGAGUUCC | 0.02 |
| GGCACAGCUCAACACAGAGUGGCAAAGUGGCUGUGGCAAGACUGCC | 0.08 |
| GGCACAGCUCAAGACAGAGUGGCAGAGUGGCUGGGGCUAGACUGCC | 0.02 |
| GGCACAGUUCAACACAGGGUGGCAAAGUGGCUGUGGGUAGACUGCC | 0.04 |
| GGCACAGCUCAAAACAGCGUGGCAAAGUGGCUGUGGAUAGACUGGC | 0.5 |
| GGCACAGCUCAACACAGAGCGGCAAAGUGGCCGUGGCUAGACUGCC | 0.03 |
| GGCACAGCUCAAGACAGCGUGGCAAGGUGGCUGUCGCCAGACUGCC | 0 |
| GGCACAGCUCAACAAAGCGUGGCAAAAUGGCUGUGCCUAGACUGCC | 0.06 |
| GGCACAGCUCAACACAGCGUGGGAAAGUGGCUGUGACUAGACUGCC | 0.01 |
| GGCACAGCUUCACACAGCGUGGCAAAGUGGCUGUGGCUAGACUGCC | 0.03 |
| GGCACAGCUAAACAAAGCGUGGCAAAAUGGCUGUGGCUAGACUGCC | 0.02 |
| GGCACAGCUCAACACAGUGUGGCAAAGGGGCUGUGCCUCGAAUGCC | 0 |
| GGCACAGCUCAACAGGGCGUGGCAAAGUGGCUGUGGCUAGACUGCC | 0 |
| GGCACAGCUCAACACAGCGUGGAAGAGUGGCUGUGGCUAGACUGCC | 0.06 |
| GGCACAGCUCAACAUAGCGUGGCAAAGUGGCUGGGGCUAGACUGCC | 0.04 |
| GGCACAGCUCAACAAAGCGUGGCAAAAUGGCUGUUGCUAGACUGCC | 0.02 |

| Variant | self-cleavage |
| --- | --- |
| GGCACAGCUAAACACAGCGUGGCAAAGUGGCUGUGGCUAGAUUGCC | 0.05 |
| GGCACAGCUCAACACAGCGUGGUAAAGUGGCUGAGGAUAGACUGCC | 0.09 |
| GGCACAGCUCAACACAGCGUGGCAAAGUGGUUGUGGCUGGACUGCC | 0.02 |
| GGCACAGCUCAACAUAGCGUGGCAAUGUGGCUGUGGCUAGACUGCG | 0.02 |
| GGCACAGCUCAACACAGCGUGGGAAAUUGGCUGUGGCGAGACUGCC | 0.01 |
| GGCACAGCUCAACAGAGCGUGGCAAAGUGGCUGUGGCUAGACCGCC | 0.01 |
| GGCACAGCUCAACACAGCGUGGCAAAGUGGUUGUGACCAGACUGUC | 0.02 |
| GGCACAGCUAAACAAAGCGUGGCAAAGUGGACGUGGCUAGACUGCC | 0.04 |
| GGCACAGCUCAAGACAGAGGGGCAAAGUGGCUGUGGCUGGUCUGCC | 0.01 |
| GGCACAGCUCAAUACAGAAUGGCAAAGUGGCUGUGGCUAGACUGCC | 0.02 |
| GGCACAGCUCAACACAGCGUGGCAAAGUGGGGGUGGCUAGACUGCC | 0 |
| GGCACAGCUCAACACAGCGUGGGAAAAUGGCUGUGGCUAGAAUGCC | 0.06 |
| GGCACAGCUUAACACGGCGUGGCAAAGUGGCUGUGGCUAGACUGCC | 0.05 |
| GGCACAGCUCAACACAGCGUGGCAAAGUGGCUGUGGUUAGAUUGCU | 0.04 |
| GGCACAGCUCAACACAGCGUGGUAAAGUGGCUGUGGGUAGACUGCC | 0.1 |
| GGCACAGCUCAACAAAGCGUGGCACAUUGGCUGUGGCUAGACUGCC | 0.04 |
| GGCACAGCUCAACAAAGCGUGGCAAAGUGGCUGUGGCAACACUGCC | 0.2 |
| GGCACAGCUCAAAACAGGGUGGCAAAGUGGCUGUGGAUAGACUGCC | 0.01 |
| GGCACAGCUCAACACAGCGUGGCAAAGUGGGUGUGGCUAGACUGCA | 0.09 |

| Variant | self-cleavage |
| --- | --- |
| GGCACAGCUCAACAUAGCGUGGCAAAGUGGCUGUGGCUAGAGUGCC | 0.14 |
| GGCACAGCUCAACAAAGCGUGGCAAAGUGGUUGUGGCUAGACUACC | 0.02 |
| GGCACAGCUCAACACAGCGUGGGAAAGUGGAUGUGGCUAGACUGCC | 0.04 |
| GGCACAGCUCAACACAGCGUGGAAAAGCGGAUGUGGCUAGACUGCC | 0.07 |
| GGCACAGCUCAACACAGAGUGCCAAAGUGGCUGUGGCUAGACUGCG | 0.02 |
| GGCACAGCUCAACAAAGCGUGGCAACGUGGCUGUGGCUAGACUGCC | 0.04 |
| GGCACAGGUCAACACAGCGCGGCUACGUGGCUGUGGCUAGACUGCA | 0.01 |
| GGCACAGCUCAACACAGCGUGGGUAAGUGGCUGUGGCUAGACUGCC | 0.03 |
| GGCACAGCUCAACACAGCGUGGCAAAGUGGCUGUGGCUAGAAUCCC | 0.12 |
| GGCACAGCUCAACACAGGGUUGUAAAGUGGUUGUGGCUAGACUGCC | 0.09 |
| GGCACAGUUCAACACAGGGUGGCAACGAAGCUGUGGCUAGACUGCC | 0.01 |
| GGCACAGUUCAACACAGCGUGCCAAAGUGGCUGUGGCUAGAGUGCC | 0.2 |
| GGCACAGCUCAAACCAGCGUGGCAAAGUGGCUGUGCCUAGACUGCC | 0.03 |
| GGCACAGCUCAAUACAGCGUGGCAAAGUGGCUGUGGCUAGAGUGCC | 0.11 |
| GGCACAGCUCAACACAGCGUGGUAAAGUGGCUGUGGCUAGACUGAC | 0.14 |
| GGCACAGCUCAAAACAGCGUGGCAAAGUGGCUGUUGCUAGACGGCC | 0.01 |
| GGCACAGCUCAACAGAGCAUGGCAAAUUGGCUUUGGAUAGACUGCC | 0.01 |
| GGCACAGCUCAAGACAGCGUCGUAAAGUAGCUGUGGCUAGACUGCC | 0 |
